This is an account of results in publication PMC10611751.

The chains behind the UniProt entries cited, without tags or fusion partners. Where a name states a change or a piece, a line headed by the entry shows the natural chain unless it says otherwise. A line that says so, or that is headed by a name, gives the form on record, which may keep a tag or linker. Residues count along the entry.
Ankyrin-G 24 ANK repeats (residues 38-855) (O70511, residues 38-855): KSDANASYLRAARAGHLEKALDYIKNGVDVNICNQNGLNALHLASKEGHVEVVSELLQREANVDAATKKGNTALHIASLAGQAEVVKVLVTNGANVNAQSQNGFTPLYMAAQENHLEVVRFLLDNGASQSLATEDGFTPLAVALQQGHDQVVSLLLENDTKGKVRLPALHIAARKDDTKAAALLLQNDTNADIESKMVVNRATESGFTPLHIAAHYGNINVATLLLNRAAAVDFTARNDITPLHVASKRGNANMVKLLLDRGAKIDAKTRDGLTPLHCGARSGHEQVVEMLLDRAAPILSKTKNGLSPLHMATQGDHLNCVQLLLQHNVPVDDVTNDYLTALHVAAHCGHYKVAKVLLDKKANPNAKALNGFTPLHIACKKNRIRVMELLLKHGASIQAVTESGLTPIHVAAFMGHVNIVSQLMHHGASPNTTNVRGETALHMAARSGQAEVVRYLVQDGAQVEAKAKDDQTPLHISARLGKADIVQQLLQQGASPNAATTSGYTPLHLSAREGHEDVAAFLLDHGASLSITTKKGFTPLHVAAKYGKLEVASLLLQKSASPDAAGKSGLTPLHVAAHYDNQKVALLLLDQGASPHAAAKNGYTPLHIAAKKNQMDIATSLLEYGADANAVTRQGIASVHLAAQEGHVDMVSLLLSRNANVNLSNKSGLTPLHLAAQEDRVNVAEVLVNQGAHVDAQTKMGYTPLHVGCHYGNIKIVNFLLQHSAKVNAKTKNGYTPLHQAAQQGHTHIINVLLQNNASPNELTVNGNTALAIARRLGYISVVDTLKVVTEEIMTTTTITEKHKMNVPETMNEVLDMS
Ankyrin-G ANK repeats 8-14 (O70511, residues 275-500): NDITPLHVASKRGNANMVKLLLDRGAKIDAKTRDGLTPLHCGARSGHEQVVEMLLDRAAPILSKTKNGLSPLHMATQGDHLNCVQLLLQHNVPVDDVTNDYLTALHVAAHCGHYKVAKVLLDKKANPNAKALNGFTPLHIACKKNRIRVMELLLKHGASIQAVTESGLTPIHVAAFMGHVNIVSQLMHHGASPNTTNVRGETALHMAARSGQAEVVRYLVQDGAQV
UniProt P30999, residues 324-938: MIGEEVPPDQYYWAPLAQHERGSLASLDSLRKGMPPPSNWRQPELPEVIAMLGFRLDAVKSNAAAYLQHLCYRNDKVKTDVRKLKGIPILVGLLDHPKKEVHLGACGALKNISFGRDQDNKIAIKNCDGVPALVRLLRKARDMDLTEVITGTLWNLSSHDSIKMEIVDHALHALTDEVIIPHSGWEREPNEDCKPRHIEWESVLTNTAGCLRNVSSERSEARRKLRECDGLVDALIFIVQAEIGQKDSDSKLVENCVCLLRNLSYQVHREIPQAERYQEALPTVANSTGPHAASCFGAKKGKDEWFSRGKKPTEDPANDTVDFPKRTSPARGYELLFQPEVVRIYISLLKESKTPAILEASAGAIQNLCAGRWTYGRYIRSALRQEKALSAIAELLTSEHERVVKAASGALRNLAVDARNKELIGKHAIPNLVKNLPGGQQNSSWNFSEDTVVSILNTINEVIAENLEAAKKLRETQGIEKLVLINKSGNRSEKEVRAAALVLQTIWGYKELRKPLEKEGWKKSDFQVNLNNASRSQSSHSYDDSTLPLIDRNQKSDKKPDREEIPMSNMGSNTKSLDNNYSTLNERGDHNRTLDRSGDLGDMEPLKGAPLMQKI
UniProt Q02248: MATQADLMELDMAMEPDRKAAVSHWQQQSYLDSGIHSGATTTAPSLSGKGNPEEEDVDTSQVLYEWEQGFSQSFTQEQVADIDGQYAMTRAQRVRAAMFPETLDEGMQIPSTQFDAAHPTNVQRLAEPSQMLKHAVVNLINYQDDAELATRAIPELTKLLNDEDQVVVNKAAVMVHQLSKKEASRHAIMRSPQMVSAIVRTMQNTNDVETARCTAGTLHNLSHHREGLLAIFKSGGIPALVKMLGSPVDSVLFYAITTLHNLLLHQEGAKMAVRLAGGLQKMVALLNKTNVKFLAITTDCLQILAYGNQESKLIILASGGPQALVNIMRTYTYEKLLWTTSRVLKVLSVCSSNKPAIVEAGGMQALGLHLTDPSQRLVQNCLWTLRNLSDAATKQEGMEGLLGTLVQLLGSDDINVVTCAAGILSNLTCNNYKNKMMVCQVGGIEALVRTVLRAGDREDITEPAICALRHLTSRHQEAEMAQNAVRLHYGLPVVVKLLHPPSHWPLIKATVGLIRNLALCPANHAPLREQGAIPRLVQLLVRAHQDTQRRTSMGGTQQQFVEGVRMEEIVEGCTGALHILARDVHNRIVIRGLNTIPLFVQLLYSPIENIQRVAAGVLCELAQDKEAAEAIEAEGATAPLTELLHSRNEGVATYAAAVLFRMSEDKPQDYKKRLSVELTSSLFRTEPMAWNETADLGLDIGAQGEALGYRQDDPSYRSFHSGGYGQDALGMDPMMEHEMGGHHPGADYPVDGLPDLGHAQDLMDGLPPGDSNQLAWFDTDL
E-cadherin C-terminal domain (residues 734-884) (P09803, residues 734-884): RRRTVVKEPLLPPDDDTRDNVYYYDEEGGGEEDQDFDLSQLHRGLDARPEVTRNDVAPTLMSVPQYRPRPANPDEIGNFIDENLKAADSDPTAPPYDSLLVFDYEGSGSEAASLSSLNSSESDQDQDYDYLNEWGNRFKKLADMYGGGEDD
E-cadherin 734-775 (P09803, residues 734-775): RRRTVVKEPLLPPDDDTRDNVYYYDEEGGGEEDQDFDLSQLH
E-cadherin 751-775 (site-1) (P09803, residues 751-775): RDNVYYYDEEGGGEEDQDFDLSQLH
E-cadherin 776-884 (P09803, residues 776-884): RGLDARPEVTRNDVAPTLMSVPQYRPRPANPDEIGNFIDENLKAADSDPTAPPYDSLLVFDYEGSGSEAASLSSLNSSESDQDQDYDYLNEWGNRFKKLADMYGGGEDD
E-cadherin 828-869 (containing both site-2 and site-3) (P09803, residues 828-869): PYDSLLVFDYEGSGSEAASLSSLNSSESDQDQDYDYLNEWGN
E-cadherin CTD site-1, 3 to A (P09803, form named): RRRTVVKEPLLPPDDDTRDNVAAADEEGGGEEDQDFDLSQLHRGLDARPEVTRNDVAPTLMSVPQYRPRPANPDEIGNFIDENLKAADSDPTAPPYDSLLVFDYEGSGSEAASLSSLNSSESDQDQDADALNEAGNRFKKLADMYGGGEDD
E-cadherin CTD site-3 to A (P09803, form named): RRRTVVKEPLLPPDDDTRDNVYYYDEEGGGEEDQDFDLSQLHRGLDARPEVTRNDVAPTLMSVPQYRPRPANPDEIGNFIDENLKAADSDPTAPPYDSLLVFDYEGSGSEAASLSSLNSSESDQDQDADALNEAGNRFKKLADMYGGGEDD
E-cadherin CTD site-1 to A (P09803, form named): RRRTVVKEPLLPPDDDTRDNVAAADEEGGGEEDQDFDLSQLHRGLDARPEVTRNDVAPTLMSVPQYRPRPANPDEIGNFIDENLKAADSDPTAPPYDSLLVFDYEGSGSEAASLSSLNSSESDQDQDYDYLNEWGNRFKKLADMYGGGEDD
E-cadherin CTD site-2, 3 to A (P09803, form named): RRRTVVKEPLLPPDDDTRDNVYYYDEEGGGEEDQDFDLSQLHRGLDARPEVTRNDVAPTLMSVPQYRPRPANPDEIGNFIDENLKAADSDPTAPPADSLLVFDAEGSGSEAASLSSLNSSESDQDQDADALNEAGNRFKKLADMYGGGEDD
E-cadherin CTD site-2 to A (P09803, form named): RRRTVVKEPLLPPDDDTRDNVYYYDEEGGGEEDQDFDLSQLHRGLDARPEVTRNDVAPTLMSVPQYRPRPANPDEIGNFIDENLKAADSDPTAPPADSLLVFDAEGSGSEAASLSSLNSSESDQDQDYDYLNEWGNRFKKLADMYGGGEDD
E-cadherin CTD site-1, 2 to A (P09803, form named): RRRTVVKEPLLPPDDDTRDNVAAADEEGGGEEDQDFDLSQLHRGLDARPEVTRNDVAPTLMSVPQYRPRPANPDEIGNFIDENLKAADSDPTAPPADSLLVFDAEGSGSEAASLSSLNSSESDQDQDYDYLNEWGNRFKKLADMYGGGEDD
E-cadherin CTD site-1, 2, 3 to A (a total of 8 aromatic residue substitutions) (P09803, form named): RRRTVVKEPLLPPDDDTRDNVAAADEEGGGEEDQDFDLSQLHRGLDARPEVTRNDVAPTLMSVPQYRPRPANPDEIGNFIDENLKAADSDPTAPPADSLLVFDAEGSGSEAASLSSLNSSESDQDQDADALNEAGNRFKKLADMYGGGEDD

These are yes or no findings as the source states them, for the method shown. Some results given as binding are weak or reduced against the parent protein; the word gives no strength.

The target of test [1] is Ankyrin-G 24 ANK repeats (residues 38-855) (UniProt O70511). Nature of the test: ITC; E-cadherin proteins in the syringe (e.g. 200 μM Trx-E-cadherin) titrated into AnkG in the cell (e.g. 20 μM Trx-AnkG R1-24); 25 °C; 50 mM Tris, 100 mM NaCl, 1 mM EDTA, 1 mM DTT, pH 7.8; one-site binding model; both purified. A general note: ITC needs no label: the signal is the heat of the interaction.

For test [2], the target named is Ankyrin-G ANK repeats 8-14 (UniProt O70511). The test is described as above.
Test [3] has as its target Ankyrin-G 24 ANK repeats (residues 38-855) (UniProt O70511). Nature of the test: ITC; a complex of two proteins formed beforehand titrated to the third protein; 25 °C; 50 mM Tris, 100 mM NaCl, 1 mM EDTA, 1 mM DTT, pH 7.8; both purified.
Test [4] has the same target. Nature of the test: SEC; analytical gel filtration chromatography (FPLC) of E-cadherin CTD, AnkG R1-24 and their 1:1 mixture; both purified. (SEC sorts molecules by how far they enter the pores of the column.)
The target of test [5] is p120 catenin 324-938 (mouse) (UniProt P30999). Nature of the test: ITC; E-cadherin CTD WT and variants with β-catenin 1-781 or p120 catenin 324-938; 25 °C; 50 mM Tris, 100 mM NaCl, 1 mM EDTA, 1 mM DTT, pH 7.8; one-site binding model; which protein was in the syringe is not stated; both purified.
For test [6], the target named is full-length β-catenin 1-781 (mouse) (UniProt Q02248). The test is described as above.
Test [7] has the same target. Nature of the test: ITC; a complex of two proteins formed beforehand titrated to the third protein; 25 °C; 50 mM Tris, 100 mM NaCl, 1 mM EDTA, 1 mM DTT, pH 7.8; both purified.

In the case of “E-cadherin CTD site-1, 3 to A (from UniProt P09803 734-884) (domain or fragment)”, the binding entry in test [1] is given as “binds”.
For “E-cadherin 828-869 (containing both site-2 and site-3) (from UniProt P09803 828-869) (domain or fragment)”, the binding entry in test [2] is “binds”.
“E-cadherin CTD–β-catenin complex (from UniProt P09803 734-884; Q02248 1-781)”: the binding result in test [3] is “binds”.
Turning to “E-cadherin CTD site-3 to A (from UniProt P09803 734-884) (domain or fragment)”, the binding result in test [1] is “binds”.
Regarding “E-cadherin C-terminal domain (residues 734-884) (from UniProt P09803 734-884) (domain or fragment)”, the binding entry in test [4], in test [5] and in test [6] was “binds” in each case.
On to “E-cadherin 776-884 (from UniProt P09803 776-884) (domain or fragment)”, for which the binding result in test [1] is given as “binds”.
On the same count and under the same terms, in the case of “E-cadherin CTD site-1 to A (from UniProt P09803 734-884) (domain or fragment)” it was “binds”; in that of “E-cadherin CTD site-2, 3 to A (from UniProt P09803 734-884) (domain or fragment)”, “binds”.
As for “E-cadherin CTD–AnkG R1-24 complex (from UniProt P09803 734-884; O70511 38-855)”, the binding result in test [7] is on record as “binds”.
“E-cadherin CTD site-2 to A (from UniProt P09803 734-884) (domain or fragment)”: in test [1], the binding entry is given as “binds”.
On to “E-cadherin 751-775 (site-1) (from UniProt P09803 751-775) (domain or fragment)”, for which the binding entry in test [2] is “binds”.
On to “E-cadherin CTD site-1, 2 to A (from UniProt P09803 734-884) (domain or fragment)”, for which the binding entry in test [1] is “binds”.
For the substance “E-cadherin 776-884–AnkG R1-24 complex (from UniProt P09803 776-884; O70511 38-855)”, the binding entry in test [7] is on record as “binds”.
Turning to “E-cadherin 734-775 (from UniProt P09803 734-775) (domain or fragment)”, the binding result in test [1] was “binds”.
On to “E-cadherin CTD site-1, 2, 3 to A (a total of 8 aromatic residue substitutions) (from UniProt P09803 734-884) (domain or fragment)”, for which the binding result in test [1] is recorded as “no binding”.
